Our source for the cytotoxicity call and growth inhibition call values is the antibiotic and cytotoxicity screens of Wong et al. (2023).

The test system of one experiment is HSkMC. In words: cytotoxicity call (relative viability < 0.9). Particulars: 10 µM.
The next experiment relates to HepG2. In words: cytotoxicity call (relative viability < 0.9). The note with it: 10 µM.
The test system of the next experiment is S. aureus RN4220. Put plainly: growth inhibition call (relative growth <= 0.2). Particulars: 50 µM.

This is one part of the list.

Take `CS(=O)(=O)N1[C@@H]2c3ccc(-c4cccc(F)c4)c(=O)n3C[C@H]1[C@H](CO)[C@H]2C(=O)N1CCOCC1`: the cytotoxicity call in the experiment with HSkMC and in the experiment on HepG2 was “inactive” throughout. In addition, in the experiment with S. aureus RN4220, the growth inhibition call was “inactive”.
`COc1cc(OC)cc(C(=O)OCCCN2CCN(CCCOC(=O)c3cc(OC)cc(OC)c3)CC2)c1`: the cytotoxicity call in the experiment on HSkMC and in the experiment with HepG2 was “inactive” in each case. Besides, the growth inhibition call in the experiment with S. aureus RN4220 was “inactive”.
`Cc1noc(C)c1NC(=O)Nc1ccc2c(c1)C(=O)N([C@H](C)CO)C[C@H](C)[C@@H](CN(C)C(=O)Nc1ccc3c(c1)OCO3)OCCCC[C@@H](C)O2`: the cytotoxicity call in the experiment on HSkMC and with HepG2 was “inactive” throughout. Further, in the experiment with S. aureus RN4220, the growth inhibition call is “inactive”.
As to `C[C@@H]1CN([C@H](C)CO)C(=O)c2cc(NC(=O)c3ccccc3)ccc2O[C@@H](C)CCCCO[C@H]1CN(C)Cc1ccc(C(F)(F)F)cc1`, the cytotoxicity call with HSkMC and with HepG2 was “inactive” each time. Moreover, the growth inhibition call in the experiment on S. aureus RN4220 was “inactive”.
For `C[C@H]1CN([C@@H](C)CO)C(=O)c2cccc(NS(=O)(=O)c3cccs3)c2O[C@H]1CN(C)CC1CC1`, the cytotoxicity call with HSkMC and in the experiment with HepG2 was “inactive” each time. The growth inhibition call in the experiment with S. aureus RN4220 is “inactive”.
For the molecule `Cc1ccc(S(=O)(=O)Nc2cccc3c2O[C@H](CN(C)S(=O)(=O)c2cccs2)[C@@H](C)CN([C@H](C)CO)C3=O)cc1`, the cytotoxicity call in the experiment with HSkMC and in the experiment with HepG2 was “inactive” in each case. In the experiment with S. aureus RN4220, the growth inhibition call is “inactive”.
As to `CC(C)NC(=O)Nc1ccc2c(c1)CC(=O)N([C@H](C)CO)C[C@H](C)[C@@H](CN(C)C(=O)Nc1ccc3c(c1)OCO3)O2`, the cytotoxicity call in the experiment on HSkMC and with HepG2 was “inactive” throughout. For the same molecule, the growth inhibition call with S. aureus RN4220 is “inactive”.
In the case of `Brc1c(NC2=NCCN2)ccc2nccnc12`, the cytotoxicity call with HSkMC and in the experiment on HepG2 was “inactive” each time. The growth inhibition call in the experiment on S. aureus RN4220 was “inactive”.
Take `C[C@H](CO)N1C[C@H](C)[C@H](CN(C)C(=O)Nc2ccc3c(c2)OCO3)Oc2ccc(NC(=O)c3ccncc3)cc2CC1=O`: the cytotoxicity call with HSkMC and in the experiment on HepG2 was “inactive” throughout. The growth inhibition call with S. aureus RN4220 is “inactive”.
For the molecule `CC(C)NC(=O)Nc1ccc2c(c1)C(=O)N([C@H](C)CO)C[C@H](C)[C@@H](CN(C)CC1CCCCC1)OCCCC[C@@H](C)O2`, the cytotoxicity call in the experiment on HSkMC and with HepG2 was “inactive” in each case. In addition, in the experiment with S. aureus RN4220, the growth inhibition call was “inactive”.
For the molecule `COc1ccc(S(=O)(=O)Nc2ccc3c(c2)CC(=O)N([C@@H](C)CO)C[C@H](C)[C@@H](CN(C)C)O3)cc1`, the cytotoxicity call with HSkMC and in the experiment on HepG2 was “inactive” throughout. In the experiment on S. aureus RN4220, the growth inhibition call is “inactive”.
For `C[C@H](CO)N1C[C@H](C)[C@H](CN(C)Cc2ccc3c(c2)OCO3)Oc2ccc(NS(=O)(=O)c3cn(C)cn3)cc2C1=O`, the cytotoxicity call in the experiment with HSkMC and in the experiment on HepG2 was “inactive” throughout. In the experiment with S. aureus RN4220, the growth inhibition call was “inactive”.
`CC(=O)c1ccc(OCc2c(-c3ccccc3)nnn2CC(=O)NS(=O)(=O)Cc2ccccc2)cc1`: the cytotoxicity call in the experiment on HSkMC and in the experiment with HepG2 was “inactive” throughout. The growth inhibition call in the experiment with S. aureus RN4220 was “inactive”.
`Cc1noc(C)c1S(=O)(=O)N(C)C[C@@H]1Oc2c(NS(=O)(=O)c3cn(C)cn3)cccc2C(=O)N([C@@H](C)CO)C[C@@H]1C`: the cytotoxicity call in the experiment with HSkMC and with HepG2 was “inactive” throughout. For the same molecule, the growth inhibition call in the experiment with S. aureus RN4220 was “inactive”.
As to `CO/N=C1\C[C@]2(C[C@@H]3C[C@@H](C/C=C(\C)C[C@@H](C)/C=C/C=C4\CO[C@@H]5[C@H](O)C(C)=C[C@@H](C(=O)O3)[C@]45O)O2)O[C@H](/C(C)=C/C(C)C)[C@H]1C`, the cytotoxicity call in the experiment with HSkMC and in the experiment with HepG2 was “active” each time. Moreover, the growth inhibition call with S. aureus RN4220 was “inactive”.
`Cn1cnc(S(=O)(=O)N2C[C@H](O)COC[C@@H]3O[C@H](CC(=O)NC4CCC4)CC[C@H]32)c1`: the cytotoxicity call in the experiment on HSkMC and in the experiment on HepG2 was “inactive” throughout. Also, in the experiment on S. aureus RN4220, the growth inhibition call was “inactive”.
As for `CS(=O)(=O)c1ccc(O)c(C(=O)O)c1`, the cytotoxicity call in the experiment with HSkMC and in the experiment with HepG2 was “inactive” throughout. Moreover, in the experiment with S. aureus RN4220, the growth inhibition call is “inactive”.
In the case of `CC(C)CC#Cc1cnc2c(c1)C(=O)N([C@@H](C)CO)C[C@H](C)[C@@H](CN(C)C(=O)c1ccc3c(c1)OCO3)O2`, the cytotoxicity call in the experiment on HSkMC and in the experiment on HepG2 was “inactive” throughout. The growth inhibition call in the experiment on S. aureus RN4220 was “inactive”.
Regarding `C[C@@H]1CN([C@@H](C)CO)C(=O)Cc2cc(NC(=O)CCN3CCOCC3)ccc2O[C@@H]1CN(C)S(=O)(=O)c1ccc(Cl)cc1`, the cytotoxicity call in the experiment on HSkMC and in the experiment on HepG2 was “inactive” each time. In addition, in the experiment with S. aureus RN4220, the growth inhibition call was “inactive”.
Regarding `COc1cccc(S(=O)(=O)N[C@H]2C=C[C@@H](CC(=O)NC3CCC3)O[C@H]2CO)c1`, the cytotoxicity call with HSkMC and in the experiment with HepG2 was “inactive” throughout. For the same molecule, in the experiment with S. aureus RN4220, the growth inhibition call was “inactive”.
Turning to `C[C@@H]1CCCCO[C@@H](CN(C)C(=O)CCC(F)(F)F)[C@@H](C)CN([C@H](C)CO)C(=O)c2cc(NS(=O)(=O)c3cccs3)ccc2O1`, the cytotoxicity call in the experiment with HSkMC and with HepG2 was “inactive” in each case. For the same molecule, the growth inhibition call in the experiment with S. aureus RN4220 was “inactive”.
In the case of `C[C@H]1CN([C@@H](C)CO)C(=O)Cc2cc(NC(=O)c3ccncc3)ccc2O[C@@H]1CN(C)Cc1ccncc1`, the cytotoxicity call in the experiment with HSkMC and in the experiment on HepG2 was “inactive” throughout. Further, the growth inhibition call with S. aureus RN4220 is “inactive”.
For `Cc1ccc(S(=O)(=O)Nc2ccc3c(c2)C(=O)N([C@H](C)CO)C[C@@H](C)[C@H](CN(C)C(=O)Nc2ccc(C(F)(F)F)cc2)OCCCC[C@H](C)O3)cc1`, the cytotoxicity call with HSkMC and with HepG2 was “inactive” each time. For the same molecule, the growth inhibition call with S. aureus RN4220 is “inactive”.
With `C[C@@H]1CN([C@@H](C)CO)C(=O)c2cc(NS(=O)(=O)c3ccc(Cl)cc3)ccc2O[C@@H]1CN(C)S(=O)(=O)c1cn(C)cn1`, the cytotoxicity call with HSkMC and with HepG2 was “inactive” in each case. Moreover, the growth inhibition call with S. aureus RN4220 is “inactive”.
Take `O=C(N/N=C/[C@H](O)[C@@H](O)[C@H](O[C@@H]1O[C@H](CO)[C@H](O)[C@H](O)[C@H]1O)[C@H](O)CO)c1ccccn1`: the cytotoxicity call with HSkMC and in the experiment on HepG2 was “inactive” in each case. In the experiment on S. aureus RN4220, the growth inhibition call was “inactive”.
For `C[C@@H]1CN([C@@H](C)CO)C(=O)c2cc(NC(=O)CCC(F)(F)F)ccc2O[C@@H](C)CCCCO[C@H]1CN(C)S(=O)(=O)c1cccs1`, the cytotoxicity call with HSkMC and in the experiment on HepG2 was “inactive” in each case. Also, the growth inhibition call with S. aureus RN4220 was “inactive”.
For the molecule `C[C@@H]1CCCCO[C@@H](CN(C)Cc2ccc(Cl)c(Cl)c2)[C@H](C)CN([C@H](C)CO)C(=O)c2cc(NC(=O)C3CCCCC3)ccc2O1`, the cytotoxicity call in the experiment on HSkMC (human skeletal muscle cells) was “inactive”. For the same molecule, in the experiment with HepG2, the cytotoxicity call is “active”. Besides, the growth inhibition call with S. aureus RN4220 is “inactive”.
